Results from publication PMC7819943, “Rice protein-binding microarrays: a tool to detect cis-acting elements near promoter regions in rice”.
The other results are listed elsewhere or left out.

Biological target: T1, OsWOX13 (Oryza sativa, UniProt Q5QMM3 1-267)
T1 sequence: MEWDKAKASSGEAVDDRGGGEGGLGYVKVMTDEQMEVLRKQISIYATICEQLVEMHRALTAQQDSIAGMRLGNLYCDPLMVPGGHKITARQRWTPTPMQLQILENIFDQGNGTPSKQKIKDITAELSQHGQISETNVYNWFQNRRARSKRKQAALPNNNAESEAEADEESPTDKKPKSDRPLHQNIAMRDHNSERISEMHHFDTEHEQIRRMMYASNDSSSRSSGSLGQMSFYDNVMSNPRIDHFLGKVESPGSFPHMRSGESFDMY
Assay: protein-binding microarray (RPBM); PBS, 2% BSA, 51.3 ng/ul salmon testes DNA, 50 uM zinc acetate, 200 nM TF, 25 C, 1 h; high values mean tight binding
Conditions: protein: recombinant; tags: N-terminal polyhistidine and DsRed monomer fusion (pET32a); label: CyDye5-dUTP incorporated in the synthesized complementary strand; 3' TTTTT single-stranded linker to array surface; dsDNA, one strand shown
Procedure, shortened: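 Per-feature fluorescence intensity (arbitrary units), read on an Axon 4000B scanner, is the binding signal. Transcription factors carrying an N-terminal polyhistidine tag and DsRed fusion were expressed in E. coli BL21-CodonPlus and purified on Ni–NTA. A custom Agilent array, made double-stranded by primer extension with Cy5-dUTP and blocked with 2% BSA, was incubated with 200 nM protein in PBS, 2% BSA, salmon testes DNA and 50 µM zinc acetate at 25 °C for 1 h and then washed.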

Sequence | binding signal
CTTCAACATATGCTAATTGCCTCGCCTATATATGCTACTCCGGAGTCACCTAGTGCAG | 3910 fluorescence intensity (a.u.)
CGGTAGTGATTGATTCGGATGATTTCACCAGTAGGATTGGCGGAGTCACCTAGTGCAG | 65300 fluorescence intensity (a.u.)
GCTGATTATTGTTATAAGTCAACAATTCTGTAACTTCTATCGGAGTCACCTAGTGCAG | 26200 fluorescence intensity (a.u.)
CCGGGTGATTACTTCTTCGAAAGCTATTTTCAGAGCCTATCGGAGTCACCTAGTGCAG | 13600 fluorescence intensity (a.u.)
TAAGATAGATGAATTGGGCACTTGAGGGTAAGAACACAGCCGGAGTCACCTAGTGCAG | 6770 fluorescence intensity (a.u.)
TACGTTAATTTCTTGCTTGCGTGCCTACAAATTAAAGTTCCGGAGTCACCTAGTGCAG | 8190 fluorescence intensity (a.u.)
GTGGTATTGACAAGTATTGGTAGTAGACCAAACATTGCCACGGAGTCACCTAGTGCAG | 3800 fluorescence intensity (a.u.)
GACAAAACTGGAAAATTAAAGCCAATAATCTCAACTCTCACGGAGTCACCTAGTGCAG | 3250 fluorescence intensity (a.u.)
TATGATTATAGTTGTCCTAAAATATAAGCGATTTTGGTTGCGGAGTCACCTAGTGCAG | 20200 fluorescence intensity (a.u.)
TTATTTAAATTTCTCCCTATTTTACCCTCAATTACCCTTCCGGAGTCACCTAGTGCAG | 3250 fluorescence intensity (a.u.)
CATAATTAATATCTAGTCCCAACTATCATACATATATGTACGGAGTCACCTAGTGCAG | 31800 fluorescence intensity (a.u.)
TTTACAAATTGATGTAGAAGTGAATCCAATTGCTGGCAAGCGGAGTCACCTAGTGCAG | 30600 fluorescence intensity (a.u.)
TGAATTTTCGACCTTAAATTAGGAGTTAATTTTGAGGTTTCGGAGTCACCTAGTGCAG | 7030 fluorescence intensity (a.u.)
AATGAATGACTGTCACAGTTCGATGATGTGACTATATATGCGGAGTCACCTAGTGCAG | 16600 fluorescence intensity (a.u.)
AGTTTTCCTAATTATAATAGATAGATATATAGACAGATAGCGGAGTCACCTAGTGCAG | 18200 fluorescence intensity (a.u.)
TAAGATTGATGGTCAAACACGGATTCCCACGGTTGTACTTCGGAGTCACCTAGTGCAG | 48800 fluorescence intensity (a.u.)
TTTCATATCATCTGATTATTAAGCAGTTTTGATATTTCACCGGAGTCACCTAGTGCAG | 3320 fluorescence intensity (a.u.)
ACTTGTATAATAATTAGCATATATATGGTTAGTTTGATTACGGAGTCACCTAGTGCAG | 5750 fluorescence intensity (a.u.)
CAAACTAAATAGACACCTTGCCTAATCTAAGCTATGACATCGGAGTCACCTAGTGCAG | 10500 fluorescence intensity (a.u.)
GCAATAGACTAGATTAATAGTAAACCACCTCAATAGTATGCGGAGTCACCTAGTGCAG | 7580 fluorescence intensity (a.u.)
CAAACTGTTAATTATGGCAATAATAGCCATCAAACGCGTACGGAGTCACCTAGTGCAG | 25600 fluorescence intensity (a.u.)

Sequence | binding signal
ATTTGATTGTCTTATGCTTGTTCTTTGATGATAAGCCATACGGAGTCACCTAGTGCAG | 17200 fluorescence intensity (a.u.)
TAATTTCAAATTGAATGAATTTGGGCATGTAATTTATTGCCGGAGTCACCTAGTGCAG | 14500 fluorescence intensity (a.u.)
TTTACATATTGATTATCTTATTAGTGCATTAGTTGTAATACGGAGTCACCTAGTGCAG | 27900 fluorescence intensity (a.u.)
GCTAAATTCCTATCAAATTCAAGTTTAACACATTACTGCGCGGAGTCACCTAGTGCAG | 13100 fluorescence intensity (a.u.)
TTCTAATTATGTATGTCATGTTTATTGTCTTAATATTTTGCGGAGTCACCTAGTGCAG | 26400 fluorescence intensity (a.u.)
AACTTGATTAAGGTTAGTTTGACCTTGTTATTCCAGAGTACGGAGTCACCTAGTGCAG | 13300 fluorescence intensity (a.u.)
GGAACTTGATTTATCATTGAAGGTACTTATATTTACACTTCGGAGTCACCTAGTGCAG | 16700 fluorescence intensity (a.u.)
ACCCATTCACCAATGATTGGATCACTCAAAGCCAAAGACCCGGAGTCACCTAGTGCAG | 22100 fluorescence intensity (a.u.)
ACAAATCTAATCAACAGCGACCACTGACTGAAGCCGCAGTCGGAGTCACCTAGTGCAG | 17200 fluorescence intensity (a.u.)
GGAGAGGTGTTCCAATCACAGCCAATATATTTTGAAGAGTCGGAGTCACCTAGTGCAG | 7850 fluorescence intensity (a.u.)
GGTATGATAAACTTGACTAATTATACCATTGGATCATTGTCGGAGTCACCTAGTGCAG | 11000 fluorescence intensity (a.u.)
GAAAATTATCTGTATAATAGTTGCATGTTTATCTTCCCTACGGAGTCACCTAGTGCAG | 14500 fluorescence intensity (a.u.)
AATTAGTCGATTAGTTATTAGATTAGCAGTATGAAATTTTCGGAGTCACCTAGTGCAG | 4080 fluorescence intensity (a.u.)
GCAATTAACTCTTAATCATATTTAGTTGAAATTAAACATACGGAGTCACCTAGTGCAG | 6580 fluorescence intensity (a.u.)
ATGGATTGACCCACCCGCATCTTTAGATGCAGCAAACAAGCGGAGTCACCTAGTGCAG | 3390 fluorescence intensity (a.u.)
CAAATAATTTATAGTGAATGTAATAGCTAATTCATACAATCGGAGTCACCTAGTGCAG | 19300 fluorescence intensity (a.u.)
ATAATTGATTCAACCTCGTTCTTAATTTGATACATCCTTCCGGAGTCACCTAGTGCAG | 32300 fluorescence intensity (a.u.)
TCTTGATTATTGTGTCCAAACCGAAGTTTACAGTCCGTTTCGGAGTCACCTAGTGCAG | 36900 fluorescence intensity (a.u.)
GGGATTGGCCAGTGAAATTAGTAACTTTTGCGGAGTCACACGGAGTCACCTAGTGCAG | 9240 fluorescence intensity (a.u.)
CACAATTTAATATGGTTATAATTGTAATCTCACATATCCTCGGAGTCACCTAGTGCAG | 7610 fluorescence intensity (a.u.)
GACGTTTTGACTGGCCAAATCTAGCTAGCCAGCCAACGATCGGAGTCACCTAGTGCAG | 3980 fluorescence intensity (a.u.)

Sequence | binding signal
GGATTTAATTGCAAGGAGTACGAGTTCATATTTCCTTTGGCGGAGTCACCTAGTGCAG | 28200 fluorescence intensity (a.u.)
CCTGATAATTGTCACAATCTTGACGGGGTTTGGTCTCATCCGGAGTCACCTAGTGCAG | 38000 fluorescence intensity (a.u.)
GTAAATTTACCATGTAATTCATTAGTGAAGACGTATCAGGCGGAGTCACCTAGTGCAG | 23000 fluorescence intensity (a.u.)
TTTCAATCAGTTTACAGTACAAAATTAGCAATCTCGATGCCGGAGTCACCTAGTGCAG | 20400 fluorescence intensity (a.u.)
TCCAAAGATTTGATGTGATGTTTTGGAAAAGAAATTTTGACGGAGTCACCTAGTGCAG | 4330 fluorescence intensity (a.u.)
AAATATCTAATTAGTTTTATTAAATCTAACAATGGATATACGGAGTCACCTAGTGCAG | 4950 fluorescence intensity (a.u.)
TGGCGAATTAAGTCAATCTGATCATGTGCCCTGTTCCTCTCGGAGTCACCTAGTGCAG | 5270 fluorescence intensity (a.u.)
ATAATAAACAATCAAAGCCCCACGTTTTCCCACTCGCCCCCGGAGTCACCTAGTGCAG | 9100 fluorescence intensity (a.u.)
GAGGACCTTGATTAGCTGTTGTAGACTTGTAGACGATCAGCGGAGTCACCTAGTGCAG | 28300 fluorescence intensity (a.u.)
AAAGACAACACATATAATAGATTAGCTATAAGATTGGCTACGGAGTCACCTAGTGCAG | 7490 fluorescence intensity (a.u.)
ACCATGGAAATTTGTTATGTTAATCGACCTAATTAACTGACGGAGTCACCTAGTGCAG | 3780 fluorescence intensity (a.u.)
ATATAATAGTTTTATTTATAAATTATTTTCATTTGCTAAGCGGAGTCACCTAGTGCAG | 4130 fluorescence intensity (a.u.)
ATATGTTAATAAATTAGTATTTAGAACTTTCGTCGACTTACGGAGTCACCTAGTGCAG | 4450 fluorescence intensity (a.u.)
ATAGGAATATCAATTAGGAATACGATGCGATACCTAACTACGGAGTCACCTAGTGCAG | 4980 fluorescence intensity (a.u.)
CCCCATGATTTTGAAATTCAACAGACTAAATTTGTTGAAACGGAGTCACCTAGTGCAG | 15000 fluorescence intensity (a.u.)
GCCCAGATTGAACTTGAACGAAAACTCTGGAGGGAAAACTCGGAGTCACCTAGTGCAG | 5640 fluorescence intensity (a.u.)
TCCCCTGATTGCTATCATAAGTGCCATTTTAGGGTGTTGACGGAGTCACCTAGTGCAG | 26100 fluorescence intensity (a.u.)
TGTTCATTAAACAGATTAATTTGGGCTATAAACACCGTAACGGAGTCACCTAGTGCAG | 20300 fluorescence intensity (a.u.)
ATGATTAGGATGTCACATACACTCCATTTCTTAGAAATTTCGGAGTCACCTAGTGCAG | 7600 fluorescence intensity (a.u.)
AAGTAGCTTTTACCAATTAACTGATTTTAACTTTGGGGACCGGAGTCACCTAGTGCAG | 8800 fluorescence intensity (a.u.)
AATTAATAGGCGGGCTTGATTCGTTCGTTCGCTCGCGGGCCGGAGTCACCTAGTGCAG | 4510 fluorescence intensity (a.u.)

Sequence | binding signal
CAATTAATTACCTGTTCACCTAGGAAGGACGTTGATCCCTCGGAGTCACCTAGTGCAG | 28600 fluorescence intensity (a.u.)
GCGACTAACTGTACATAGACATGGAAAAGGATAACATTACCGGAGTCACCTAGTGCAG | 3320 fluorescence intensity (a.u.)
TTACCAAATTAGTTTAATTAAATAAATAATTAAATATATTCGGAGTCACCTAGTGCAG | 11100 fluorescence intensity (a.u.)
TTTAATTGTGACGAACACAACGGTGTAATCAGATTGTAGACGGAGTCACCTAGTGCAG | 25400 fluorescence intensity (a.u.)
TGTAAACAGACAGAGCGAAGCAATCATCCAACCATTCCATCGGAGTCACCTAGTGCAG | 8500 fluorescence intensity (a.u.)
TGATCTTGATTTATAACCTGTCCGTTCTTGCTGTTGAGTGCGGAGTCACCTAGTGCAG | 24600 fluorescence intensity (a.u.)
TGGTCCTTGATAATTTGTTGGTCTTGTAGCGTGGGTGTTTCGGAGTCACCTAGTGCAG | 3150 fluorescence intensity (a.u.)
GGTGATATCGCCATCCAAGTGATTGAGTAGTTGATATAGACGGAGTCACCTAGTGCAG | 4660 fluorescence intensity (a.u.)
GGGTAGACTAGTATTATGTTATTATCCCTGACAGGTGGGCCGGAGTCACCTAGTGCAG | 3520 fluorescence intensity (a.u.)
CTGTCCATTAAGATCTAGTAACAGAGCAATCAGAATTCAGCGGAGTCACCTAGTGCAG | 4650 fluorescence intensity (a.u.)
GCTTGGATGCTTGATTACAATTTAGTACTAGTGTACTACACGGAGTCACCTAGTGCAG | 4270 fluorescence intensity (a.u.)
CTAATTAGTAACATGAAGAGAGGGCAATCAATGTACAGTGCGGAGTCACCTAGTGCAG | 17600 fluorescence intensity (a.u.)
TATTCGACTATGGTTTGATTGGCTAGCACCGGGATCTTACCGGAGTCACCTAGTGCAG | 12800 fluorescence intensity (a.u.)
CGGATTAATTAGGCTCAAAAGATTCGTCTCGCGGTTTCTACGGAGTCACCTAGTGCAG | 20500 fluorescence intensity (a.u.)
CTTGATTGAGAGATACAGCTAGTTGCAAGATTATAGCAAACGGAGTCACCTAGTGCAG | 33700 fluorescence intensity (a.u.)
ATTATTGACAAAAGCATCTCGATATCTTATGGATTAATATCGGAGTCACCTAGTGCAG | 4720 fluorescence intensity (a.u.)
TTTAGTTAAATTTAAAATAGATTAAGTTTGACTAAAGTCTCGGAGTCACCTAGTGCAG | 27100 fluorescence intensity (a.u.)
GAATGCAAGAAACATAAATAGATTGATATATAGACTATACCGGAGTCACCTAGTGCAG | 9410 fluorescence intensity (a.u.)
CATCAATTAAGTTTCAGATCAACTCGTCTGTCAAGAGAGCCGGAGTCACCTAGTGCAG | 25500 fluorescence intensity (a.u.)
ATCTTCTCAGAATTTTGATTGTCTTTGAAATGGAGAGCACCGGAGTCACCTAGTGCAG | 5360 fluorescence intensity (a.u.)
CCTCACCCCTTCTAATTATTTGATATTAGGTCCTTCACTACGGAGTCACCTAGTGCAG | 3480 fluorescence intensity (a.u.)
